# Results from the supplement of paper PMC4604168 (melanoma cell lines).
# Some of the results follow. Many values rest on one well or one pass, so single values are uncertain.
# System: WM1745
# Assay: cell count relative to DMSO control; melanoma cells; higher = more viable cells
# Details: library dose: low library concentration; 72 h
# 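Further: cell number obtained by counting DAPI-stained nuclei in high-throughput microscope images with image analysis software, screen run in 1,536-well plates.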
row,Compound,cell count [%]
1,"Cc1cc(Nc2cc(N3CCN(C)CC3)nc(Sc3ccc(NC(=O)C4CC4)cc3)n2)n[nH]1 [Tozasertib] + CCc1ccc(CCOc2ccc(CC3SC(=O)NC3=O)cc2)nc1 [pioglitazone] (first compound 0.006 µM, partner dose 2 µM)",79.1
2,"CC[C@]1(O)C[C@H]2CN(CCc3c([nH]c4ccccc34)[C@@](C(=O)OC)(c3cc4c(cc3OC)N(C=O)[C@H]3[C@@](O)(C(=O)OC)[C@H](OC(C)=O)[C@]5(CC)C=CCN6CC[C@]43[C@@H]65)C2)C1 [vincristine] + COc1cc2ncnc(Nc3ccc(Oc4ccccc4)cc3)c2cc1OC [SrcI1] (first compound 0.0001 µM, partner dose 2 µM)",69.9
3,"N#CC[C@H](C1CCCC1)n1cc(-c2ncnc3[nH]ccc23)cn1 [ruxolitinib] + O=C(/C=C/c1cccnc1)NCCCCC1CCN(C(=O)c2ccccc2)CC1 [FK866] (first compound 1 µM, partner dose 0.01 µM)",104
4,"Cc1cc(Nc2cc(N3CCN(C)CC3)nc(Sc3ccc(NC(=O)C4CC4)cc3)n2)n[nH]1 [Tozasertib] + Cc1cc(Nc2cc(N3CCN(C)CC3)nc(/C=C/c3ccccc3)n2)n[nH]1 [ENMD2076] (first compound 0.006 µM, partner dose 0.04 µM)",93
5,"Cc1cc(Nc2cc(N3CCN(C)CC3)nc(Sc3ccc(NC(=O)C4CC4)cc3)n2)n[nH]1 [Tozasertib] + O=c1[nH]nc(Sc2ncc([N+](=O)[O-])s2)n1-c1ccc2c(c1)OCCO2 [BI78D3] (first compound 0.006 µM, partner dose 0.2 µM)",95.5
6,"N#CC[C@H](C1CCCC1)n1cc(-c2ncnc3[nH]ccc23)cn1 [ruxolitinib] + CN(NC(=O)CC(=O)NN(C)C(=S)c1ccccc1)C(=S)c1ccccc1 [STA4783] (first compound 1 µM, partner dose 0.006 µM)",59.4
7,"CC[C@]1(O)C[C@H]2CN(CCc3c([nH]c4ccccc34)[C@@](C(=O)OC)(c3cc4c(cc3OC)N(C=O)[C@H]3[C@@](O)(C(=O)OC)[C@H](OC(C)=O)[C@]5(CC)C=CCN6CC[C@]43[C@@H]65)C2)C1 [vincristine] + COC(=O)c1sccc1S(=O)(=O)Nc1ccc(Nc2ccccc2)cc1OC [GSK0660] (first compound 0.0001 µM, partner dose 1 µM)",82.1
8,"Cc1cc(Nc2cc(N3CCN(C)CC3)nc(Sc3ccc(NC(=O)C4CC4)cc3)n2)n[nH]1 [Tozasertib] + CC(C)CCN1c2nc(Nc3cc(F)c(O)c(F)c3)ncc2N(C)C(=O)C1C [BID1870] (first compound 0.006 µM, partner dose 0.2 µM)",88.7
9,"Cc1cc(Nc2cc(N3CCN(C)CC3)nc(Sc3ccc(NC(=O)C4CC4)cc3)n2)n[nH]1 [Tozasertib] + Cc1cn(-c2cc(NC(=O)c3ccc(C)c(Nc4nccc(-c5cccnc5)n4)c3)cc(C(F)(F)F)c2)cn1 [nilotinib] (first compound 0.006 µM, partner dose 0.2 µM)",75.5
10,"N#CC[C@H](C1CCCC1)n1cc(-c2ncnc3[nH]ccc23)cn1 [ruxolitinib] + O=C(Nc1ccccc1)c1cc([N+](=O)[O-])ccc1Cl [GW9662] (first compound 1 µM, partner dose 2 µM)",85.2
11,"CC[C@]1(O)C[C@H]2CN(CCc3c([nH]c4ccccc34)[C@@](C(=O)OC)(c3cc4c(cc3OC)N(C=O)[C@H]3[C@@](O)(C(=O)OC)[C@H](OC(C)=O)[C@]5(CC)C=CCN6CC[C@]43[C@@H]65)C2)C1 [vincristine] + CC(C)CCN1c2nc(Nc3cc(F)c(O)c(F)c3)ncc2N(C)C(=O)C1C [BID1870] (first compound 0.0001 µM, partner dose 0.2 µM)",67
12,"Cc1cc(Nc2cc(N3CCN(C)CC3)nc(Sc3ccc(NC(=O)C4CC4)cc3)n2)n[nH]1 [Tozasertib] + CCCCCCCCCCCCCCCCCCOP(=O)([O-])OC1CC[N+](C)(C)CC1 [Perifosine] (first compound 0.006 µM, partner dose 0.4 µM)",106
13,"Cc1cc(Nc2cc(N3CCN(C)CC3)nc(Sc3ccc(NC(=O)C4CC4)cc3)n2)n[nH]1 [Tozasertib] + Cc1cc(N2CCOCC2)cc2[nH]c(-c3c(NC[C@@H](O)c4cccc(Cl)c4)cc[nH]c3=O)nc12 [BMS536924] (first compound 0.006 µM, partner dose 0.2 µM)",79.5
14,"CC[C@]1(O)C[C@H]2CN(CCc3c([nH]c4ccccc34)[C@@](C(=O)OC)(c3cc4c(cc3OC)N(C=O)[C@H]3[C@@](O)(C(=O)OC)[C@H](OC(C)=O)[C@]5(CC)C=CCN6CC[C@]43[C@@H]65)C2)C1 [vincristine] + O=C(O)c1ccc2c(c1)nc(Nc1cccc(Cl)c1)c1ccncc12 [CX4945] (first compound 0.0001 µM, partner dose 0.4 µM)",110
